Data on 56 variants can be found in the RNAGym collection of RNA variant scans (doi:10.7554/elife.90254).

The chains are these.
B1: LINE1-mini (parent)
chain: GGCAGAGCUCAACACAGCGUGGCAAAGUGGCUGUGGCUAGACUGCC

The source gives no read counts; variants with many changes may rest on few reads.

The variants in the series derive from B1. As to the kind of experiment: self-cleavage, relative activity (ratio to wild type); higher = more cleavage; in vitro, sequencing; the parent is a self-cleaving ribozyme.
For GGCAGACCUUAACACAGCGUAGCAAAGUGGCUGUGGCUAGACUGCC [G7C C10U G21A], the self-cleavage stood at 0.91.
The figure for GGCAGACGUCAACACAGCGUGGCAAAGUGGCUGUGGCUAUACUGCC [G7C C8G G40U] is 0.35.
As to GGCAGACCUCAACACAGCGUGGAAAAGUUGCUGUGGCUAGAGUGCC [G7C C23A G29U C42G], the self-cleavage came out at 0.
In the case of GGCAGACCUCAAUACAGCCUGGCAAAGGGGCUGUGGCUAGAGUGCC [G7C C13U G19C U28G C42G], the self-cleavage came out at 0.03.
Next, GGCAGACCUCAACACAGAGUGGCAAAGUGGCUGUGGCUUGACUGCC [G7C C18A A39U]: 0.13.
Next, GGCAGACCUCAACACAGAGUGGCAAAGUGGCUGUGGCUAGACUACC [G7C C18A G44A]: 0.17; GGCAGACCUCAACACAACGUGGUAAAGUGGCUGUGGCUAGACUGCC [G7C G17A C23U]: 0.18; GGCAGACCUGAACACAGCGUGGCAAAGUGGCUGUGGCUUGACUGCC [G7C C10G A39U]: 0.02.
Consider GGCAGACCUAAACACAGCGUGACCAAGUGGCUGUGGCUAGACUGCC [G7C C10A G22A A24C], for which the self-cleavage was 0.01.
As for GGCAGACCUCAACACAGCGUGGCAAAGUGGGUAUGGGUAGACUGCC [G7C C31G G33A C37G], the self-cleavage turned out to be 0.02.
The figure for GGCAGACCUCAAAACAGCGUGGCAAUGUGGCUGUGGCCAGACUGCC [G7C C13A A26U U38C] is 0.03; for GGCAGACCUCAACACAGAGUGGCAAAGUGGCUGUGGUUAGACUGGC [G7C C18A C37U C45G] it is 0.05; for GGCAGACGUCAACACAGCGCGGCAAAAUGGCUGUGGCUAGACUGCC [G7C C8G U20C G27A] it is 0.08.
Next, GGCAGACCUAAACACAGCGUGGCAAGAUGGCUGUGGCUAGACUGCC [G7C C10A A26G G27A]: 0.02; GGCAGACCUCAAGACAGCGUGGCAAAAUGGCUGUGGCUAGACUGCC [G7C C13G G27A]: 0.08.
For GGCAGACCUCAACACAGCGUGGAAAAGUGGCUGUGGCUGAACUGCA [G7C C23A A39G G40A C46A], the self-cleavage was found to be 0.01.
Consider GGCAGACCUCAACAAAGCGUGGUAAAGUGGCUGUCGCUAGAAUGCC [G7C C15A C23U G35C C42A], for which the self-cleavage is 0.12.
Next, GGCAGACGUCUAAACAGCGUGGCAAAGUGGCUGUGGCUAGACUGCC [G7C C8G A11U C13A]: 0.02; GGCAGACCUCAACAAAGCGUGGCAAAGCGGUUGUGGCUAGACUGCC [G7C C15A U28C C31U]: 0.03; GGCAGACCUCAACACAGUGUGGCACAGUAGCUGUGGCUAGACUGCA [G7C C18U A25C G29A C46A]: 0.03.
Next, GGCAGACUUCAACACCGCGUGGCAAAGUAGCUGUGGCUAGACUACC [G7C C8U A16C G29A G44A]: 0.07; GGCAGACAUCAACACAGCGUGGCAAAGUGGCAGUGGCUAGACUGGC [G7C C8A U32A C45G]: 0.15.
Turning to GGCAGACCUCAAAACGGGGUGGCAAAGUGGCUGUGGCUAGACUGCC [G7C C13A A16G C18G], the self-cleavage stood at 0.06.
Take GGCAGACUUCAACACAGCGUGGCAAAGUGGAUGUGGCUAGACUGCC [G7C C8U C31A]: the self-cleavage came out at 0.16.
The figure for GGCAGACGUCAACACAGCGGGGCCAAGUGGCUGUGGCUAGACUACC [G7C C8G U20G A24C G44A] is 0.11; for GGCAGACUUCAACACAGCGUGGCAACGUUUUUGUGGCUAGACUGCC [G7C C8U A26C G29U G30U C31U] it is 0.17; for GGCAGACCUCAAUACAGCGUGUCAAAGUGGCUGUGGCCAGACUGCC [G7C C13U G22U U38C] it is 0.17.
As for GGCAGACCUCAACAAAGCGUGGCAAAUUGGCUGUGGCUCGACUGCC [G7C C15A G27U A39C], the self-cleavage amounted to 0.04.
Regarding GGCAGACCUCAACACAGCGUGGAAAAGUGGCUGUGGCUAGACAGCC [G7C C23A U43A], the self-cleavage was determined as 0.01.
The figure for GGCAGACCUCAAAACAGCGUGGAAAAGUGGCUUUGGCUAGAGUGCC [G7C C13A C23A G33U C42G] is 0.05; for GGCAGACCUCAACACAGCGUGGAAAAUUGGCAGUUGCUAGACUGCC [G7C C23A G27U U32A G35U] it is 0.04.
Next, GGCAGACCUCAACACACCGUGGCAAAGUGGCUGCGGCUAGACUGCC [G7C G17C U34C]: 0.04.
With GGCAGACUUCAACACAGCGAGGCAAAGUGGCUGUGGCUAGACUGCA [G7C C8U U20A C46A], the self-cleavage came to 0.14.
In the case of GGCAGACCUAAACACAGCGUGGCAAAGUGGCUUUGGCAAGACCGCC [G7C C10A G33U U38A U43C], the self-cleavage worked out at 0.03.
The figure for GGCAGACCUCAACAUAGCGUGGCAAAGUGGGUGUGUCUGGACUGCC [G7C C15U C31G G36U A39G] is 0.02; for GGCAGACGUCAACACAGCGUGGCAAAGUGGCUGUGUCUAGACUGCC [G7C C8G G36U] it is 0.11.
For GGCAGACCUCAACACAGCGUGGGAAAGUGGCAGUGGCUAGACUGCC [G7C C23G U32A], the self-cleavage is 0.08.
Take GGCAGACCUCAACAAAGCGUGGCAAAGUGGAUGUGGCUAGACUGCC [G7C C15A C31A]: the self-cleavage was 0.15.
For the variant GGCAGACCUUAACACAGCAUGGCAAAGUGGCUGUGGCUAGACUGCC [G7C C10U G19A], the self-cleavage came to 0.05.
Next, GGCAGACCUAAACACGGCGUGGCAAAGUGGCAGUGGCUAGACUCCC [G7C C10A A16G U32A G44C]: 0.02; GGCAGACCUCAACACAGAGUGGCAAUGUGGCGGUGGCUAGACUGCC [G7C C18A A26U U32G]: 0.04; GGCAGACCUCAACAAAGCAUCGCAAAGUGGCUUUGGCUAGACUACC [G7C C15A G19A G21C G33U G44A]: 0.09.
The figure for GGCAGACCUCAACAUAGCGUGGCAAAGUGGCUCUGGCUAGACUGCC [G7C C15U G33C] is 0.1; for GGCAGACCUCAACACAGCGUGGGAAAGUGGCUGUGGCUUGACUGCC [G7C C23G A39U] it is 0.04.
For GGCAGACCUUAACACAGUCUGGCAAAGUGGCUGUGGCUAGACUGCC [G7C C10U C18U G19C], the self-cleavage was 0.02.
With GGCAGACCUUAACACAGCGUAGCAAAUUGGCUGUGGCUAGACUGCC [G7C C10U G21A G27U], the self-cleavage was determined as 0.02.
On to GGCAGACCUCAACACAGUGUGGCAAAUUGUCUGUGGCUAGACUGCC [G7C C18U G27U G30U], for which the self-cleavage worked out at 0.04.
As to GGCAGACGUCAACACAGCACGGCAAAGUGGCUGUGGCUAGACUGCC [G7C C8G G19A U20C], the self-cleavage stood at 0.05.
The figure for GGCAGACCUUAACACAGCGUGGCAAAGUAGCUGUGGCUAGAUUGCU [G7C C10U G29A C42U C46U] is 0.02; for GGCAGACCUCAACACAGGGUGGCAAAGUGGAUGUGGCUAGACUGCC [G7C C18G C31A] it is 0.02.
On to GGCAGACCUUAACACAGCGUGGCAGACUGGCUGUGGCUAGACUGCC [G7C C10U A25G G27C], for which the self-cleavage was 0.02.
Turning to GGCAGACCUCAACACAGCGUGGCAAAGUGGAUGUGGCUGGACUGCC [G7C C31A A39G], the self-cleavage came to 0.13.
Next, GGCAGACCUCAACACACCGUGGCAAAGUGUCUGUGGCUAGACUGCC [G7C G17C G30U]: 0.11.
Regarding GGCAGACCUCAACACAACGAGGCAACGUGGCUGUGGCUAUACUGUC [G7C G17A U20A A26C G40U C45U], the self-cleavage was determined as 0.02.
With GGCAGACUCCAACACAGCGUGGCAAAGUUGCUGUGGCUAGACUGCC [G7C C8U U9C G29U], the self-cleavage was found to be 0.02.
Take GGCAGACGUCAACACAGCGAGGCAAAGUGGCUGUGGCUAGACUGCC [G7C C8G U20A]: the self-cleavage is 0.15.
